The source of these data is article PMC4336329 (PLoS ONE, 2015).

Structures are written as SMILES. Out of some 310,000 compounds screened, about 14,000 (4.5%) showed an effect of 50% or more. The effect is printed as a negative number. Some of the results follow.
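Further: peak tail current of the secondary pulse compared with the same well before compound.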

In this experiment the target is human ether-à-go-go-related gene (hERG) potassium channel (human, UniProt Q12809). Nature of the experiment: primary screen, population patch clamp on CHO cells stably expressing hERG.
Sequence of human ether-à-go-go-related gene (hERG) potassium channel (Q12809 whole entry, looked up): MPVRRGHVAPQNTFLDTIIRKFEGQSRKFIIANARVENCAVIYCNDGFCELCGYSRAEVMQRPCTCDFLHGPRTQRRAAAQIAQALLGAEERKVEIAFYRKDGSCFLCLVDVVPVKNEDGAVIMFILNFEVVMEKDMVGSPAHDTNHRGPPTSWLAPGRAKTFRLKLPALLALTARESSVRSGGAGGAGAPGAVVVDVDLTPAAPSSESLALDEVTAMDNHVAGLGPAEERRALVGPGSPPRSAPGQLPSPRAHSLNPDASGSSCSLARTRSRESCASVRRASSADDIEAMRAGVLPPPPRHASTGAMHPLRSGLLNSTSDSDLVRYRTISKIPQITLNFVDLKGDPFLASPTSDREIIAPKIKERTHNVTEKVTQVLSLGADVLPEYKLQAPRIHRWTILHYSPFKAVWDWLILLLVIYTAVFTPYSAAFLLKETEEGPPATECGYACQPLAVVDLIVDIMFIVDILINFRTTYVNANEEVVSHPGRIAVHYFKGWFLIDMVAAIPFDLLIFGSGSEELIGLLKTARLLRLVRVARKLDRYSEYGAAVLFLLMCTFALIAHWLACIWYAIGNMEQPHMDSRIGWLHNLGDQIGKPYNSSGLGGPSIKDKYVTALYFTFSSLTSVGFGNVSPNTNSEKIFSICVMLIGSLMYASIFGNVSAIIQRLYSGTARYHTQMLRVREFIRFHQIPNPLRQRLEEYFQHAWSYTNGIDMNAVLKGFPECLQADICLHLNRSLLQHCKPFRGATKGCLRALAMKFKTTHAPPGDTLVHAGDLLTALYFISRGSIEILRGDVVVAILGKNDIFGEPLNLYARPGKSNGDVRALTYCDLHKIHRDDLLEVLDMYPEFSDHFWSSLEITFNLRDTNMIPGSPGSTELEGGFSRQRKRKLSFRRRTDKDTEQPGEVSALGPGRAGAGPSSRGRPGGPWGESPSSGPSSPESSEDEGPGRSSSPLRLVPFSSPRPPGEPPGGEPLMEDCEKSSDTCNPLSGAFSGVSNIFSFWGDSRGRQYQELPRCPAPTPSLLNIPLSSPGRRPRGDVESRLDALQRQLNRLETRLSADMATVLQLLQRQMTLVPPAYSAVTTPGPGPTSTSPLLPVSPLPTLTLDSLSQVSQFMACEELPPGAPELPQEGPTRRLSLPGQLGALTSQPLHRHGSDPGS
Turning to `CCOC(=O)/C(C#N)=C/c1cc(C)n(-c2ccc(C)cc2)c1C`, the “hERG current change (%, negative = inhibition) at 10uM” value is 10.4%.
Regarding `CC(C)(C)c1ccc(C(=O)NN=C2CCCC2)cc1`, the “hERG current change (%, negative = inhibition) at 10uM” value was found to be 9.99%.
On to `CCCc1cc(C(=O)N/N=C/c2ccc(CC)s2)c2ccccc2n1`, for which the “hERG current change (%, negative = inhibition) at 10uM” value is reported as 6.64%.
As to `NC(=O)CCC(=O)N1CCCC(C(=O)c2ccc3c4c(cccc24)CC3)C1` (stereo not shown), the “hERG current change (%, negative = inhibition) at 10uM” value is recorded as 2.05%.
`O=C(CNS(=O)(=O)c1cccs1)N1CCN(c2ccccc2F)CC1`: the “hERG current change (%, negative = inhibition) at 10uM” value is reported as 5.12%.
The figure for `CCCc1nc(N)sc1C(=O)OCC` is 2.82%; for `CCOc1ccc(-n2c(SCC(=O)Nc3cc(OC)c([N+](=O)[O-])cc3C)nc3ccccc32)cc1` it is 12.3%; for `CCC(C)(C)n1nnnc1C(CC(C)C)N1CCC(C(N)=O)CC1` (stereo not shown) it is 2.14%.
The figure for `C#CCOC(=O)CN1C(=O)c2cccc3cccc(c23)C1=O` is -0.379%.
Take `COc1cc(-c2nc3ccc4ccccc4c3c3c2CCC3)cc(OC)c1O`: the “hERG current change (%, negative = inhibition) at 10uM” value is -5.42%.
Turning to `O=C(NC(=C(Cl)Cl)P(=O)(c1ccccc1)c1ccccc1)c1ccccc1`, the “hERG current change (%, negative = inhibition) at 10uM” value is 6.6%.
As to `Cc1nn2c(COc3ccc(NC(=O)c4ccccc4)cc3)nnc2c2ccccc12`, the “hERG current change (%, negative = inhibition) at 10uM” value was 4.38%.
The figure for `CCOP(=O)(OCC)C(Nc1ccccn1)c1ccc(F)cc1` (stereo not shown) is 5.13%; for `O=C(c1ccc(F)cc1)N1CCN(Cc2ccccc2)CC1` it is 0.241%; for `CCC(C)c1ccccc1OCC(=O)NN1C(=O)c2ccccc2C1=O` (stereo not shown) it is -35.2%.
On to `COc1cccc(N2C(=O)C3CCCN3C2=S)c1` (stereo not shown), for which the “hERG current change (%, negative = inhibition) at 10uM” value is reported as 21.3%.
Regarding `O=c1[nH]c(=O)n([C@H]2C[C@H](O)[C@@H](CO)O2)cc1I`, the “hERG current change (%, negative = inhibition) at 10uM” value was 17.6%.
In the case of `CC(=O)Nc1ccc(NC(=O)C(C)OC(=O)/C=C/c2cn(-c3ccccc3)nc2-c2cccnc2)cc1` (stereo not shown), the “hERG current change (%, negative = inhibition) at 10uM” value turned out to be 6.73%.
The value for `Cc1ccc(CNC(=O)CCCCCNc2nc(=S)[nH]c3ccccc23)cc1` was -15.7%; that for `COc1ccc(Cc2nnc(SCC(=O)NC3CCCCC3)n2C)cc1` was 11.4%.
With `O=C(NCC1CCCO1)c1ccc2c(c1)N(Cc1ccc(F)cc1)CCS2` (stereo not shown), the “hERG current change (%, negative = inhibition) at 10uM” value is given as -20.6%.
`CCOC(=O)CNC(=O)N1CCCC(Cc2ccccc2)(C(=O)OCC)C1` (stereo not shown): the “hERG current change (%, negative = inhibition) at 10uM” value came to 6.26%.
For `Cc1nc2cc(NC(=O)N3c4ccccc4CC3C)ccc2o1` (stereo not shown), the “hERG current change (%, negative = inhibition) at 10uM” value is given as 0.791%.
The value for `CCC(C)NC(=O)c1ccccc1NC(=O)Nc1ccccc1` (stereo not shown) was 3.24%; that for `O=C(CCNC(=O)c1ccccc1Cl)OCC(=O)c1ccccc1` was 18.1%.
